Results on five compounds are retold here after the supplement of paper PMC4604168 (melanoma cell lines).

The list shows a part of the results. Many values rest on one well or one pass, so single values are uncertain.
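Note: cells treated in 1,536-well plates, then fixed and DAPI-stained, with nuclei counted from automated high-throughput microscope images.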

For the assay, the system named is WM1745. Description: cell count relative to DMSO control; melanoma cells; higher = more viable cells. The settings on record: library dose: standard library concentration; 72 h.
Regarding `N#CC[C@H](C1CCCC1)n1cc(-c2ncnc3[nH]ccc23)cn1` [ruxolitinib] + C[C@@H](Oc1cc(-c2cnn(C3CCNCC3)c2)cnc1N)c1c(Cl)ccc(F)c1Cl [Crizotinib] (first compound 5 µM, partner dose 1 µM), the cell count came out at 72.5%. In the case of `Cc1cc(Nc2cc(N3CCN(C)CC3)nc(Sc3ccc(NC(=O)C4CC4)cc3)n2)n[nH]1` [Tozasertib] + NCC(=O)Nc1ccc(-n2nc(C(F)(F)F)cc2-c2ccc3c(ccc4ccccc43)c2)cc1 [OSU03012] (first compound 0.03 µM, partner dose 5 µM), the cell count was determined as 63.6%. Turning to `CC[C@]1(O)C[C@H]2CN(CCc3c([nH]c4ccccc34)[C@@](C(=O)OC)(c3cc4c(cc3OC)N(C=O)[C@H]3[C@@](O)(C(=O)OC)[C@H](OC(C)=O)[C@]5(CC)C=CCN6CC[C@]43[C@@H]65)C2)C1` [vincristine] + NCC(=O)Nc1ccc(-n2nc(C(F)(F)F)cc2-c2ccc3c(ccc4ccccc43)c2)cc1 [OSU03012] (first compound 0.0005 µM, partner dose 5 µM), the cell count is 99.9%.

In turn, `N#CC[C@H](C1CCCC1)n1cc(-c2ncnc3[nH]ccc23)cn1` [ruxolitinib] + Cc1nc(Nc2ncc(C(=O)Nc3c(C)cccc3Cl)s2)cc(N2CCN(CCO)CC2)n1 [dasatanib] (first compound 5 µM, partner dose 0.02 µM) returned a cell count of 24.7%. For the compound `CC[C@]1(O)C[C@H]2CN(CCc3c([nH]c4ccccc34)[C@@](C(=O)OC)(c3cc4c(cc3OC)N(C=O)[C@H]3[C@@](O)(C(=O)OC)[C@H](OC(C)=O)[C@]5(CC)C=CCN6CC[C@]43[C@@H]65)C2)C1` [vincristine] + O=C(O)c1ccc(-c2c[nH]c3ncc(-c4ccccc4)cc23)cc1C1CCCC1 [GSK650394] (first compound 0.0005 µM, partner dose 0.8 µM), the cell count is 111%.
